Measurements taken from the supplement of paper PMC7125110.
± gives the standard error. This sample is rich in variants without activity.

B1: glmS ribozyme (parent)
chain: AUAAAAGCGCCAGAACUACAGAAAUGUAGUUGACGAGGAGGAGGUUUAUCGAAUUUUCGGCGGAUGCCUCCAAA

What was measured:
Conditions in all cases: with glucosamine-6-phosphate
[1] = variants of: B1; assay: self-cleavage kobs at 40 uM GlcN6P; higher = faster cleavage; RNA array
Procedure, shortened: (§1)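 Glucosamine-6-phosphate (40 μM to 10 mM) in HEPES/KCl/Mg(OAc)2 buffer was flowed over sequenced MiSeq chips, and tiles were imaged over ~14 h. Barcoded ribozyme variants there had been transcribed in situ by E. coli RNA polymerase and were tracked through a hybridised Cy3 probe at 37 °C. One- or two-exponential decay fits to per-tile medians, normalised to baseline and to non-cleaving reference variants, gave kobs. kcat and KM came from weighted Michaelis–Menten fits across concentrations.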

[2] = variants of: B1; assay: self-cleavage kobs at 640 uM GlcN6P; higher = faster cleavage; RNA array
Procedure, shortened: as §1

[3] = variants of: B1; assay: self-cleavage kobs at 160 uM GlcN6P; higher = faster cleavage; RNA array
Procedure, shortened: as §1

[4] = variants of: B1; assay: self-cleavage kobs at 2500 uM GlcN6P; higher = faster cleavage; RNA array
Procedure, shortened: as §1

[5] = variants of: B1; assay: self-cleavage kobs at 10000 uM GlcN6P; higher = faster cleavage; RNA array
Procedure, shortened: as §1

Variant	self-cleavage kobs at 40 uM GlcN6P [1] [s⁻¹]	self-cleavage kobs at 640 uM GlcN6P [2] [s⁻¹]	self-cleavage kobs at 160 uM GlcN6P [3] [s⁻¹]	self-cleavage kobs at 2500 uM GlcN6P [4] [s⁻¹]	self-cleavage kobs at 10000 uM GlcN6P [5] [s⁻¹]
AUAAAAGUGCCAGAACUACAGAAAUGUAGUUGACGAGGAGGAGGUUUAUAAAAUUUUCGGCGGAUGCCGCCAAA	0.00046 ± 0.00016	–	–	–	–
AUAAAAGUGCCAGAACUACAGAAAUGUAGUUGACGAGGAGGAGGUUUAUCGAAUUUUCGACGGAUGCCUCCAAA	< 1e-05	< 1e-05	< 1e-05	< 1e-05	< 1e-05
AUAAAAGUGCCAGAACUACAGAAAUGUAGAUGACGAGGAGGAGGUUUAUCGAAUUUUCGGCGGAUGCCUCCAAA	< 1e-05	< 1e-05	< 1e-05	< 1e-05	–
AUAAAAGCACCAGAACUACAGAAAUGUACUUGACGAGGAGGAGGUUUAUCGAAUUUUCGGCGGAUGCCUCCAAA	< 1e-05	–	–	–	–
AUAAAAGCACCCGAUCUACAGAAAUGUAGUUGACGAGGAGGAGGUUUAUCGAAUUUUGGGCGGAUGCCUCCAAA	< 1e-05	–	–	–	–
AUAAAAGUGCCAGAACUACAGAAAUGUAGUUGACGAGGAGGAGGUUUAUCGAAUUUUCGGCGGAUGGCUCCAAA	< 1e-05	–	< 1e-05	–	< 1e-05
AUAAAAGUGCCAGAACUACAGAAAUGUAGUUGAAGAGGAGGAGGUUUAUCGAAUUUUCGGCGGAUGCCUCCAAA	< 1e-05	< 1e-05	< 1e-05	< 1e-05	< 1e-05
AUAAAAGUGCCAGAACUACAGAAAUGUAGUUGACGAGGAGGAGGUUUAUCGAAUUUUCGGCAGAUGCCUCCAAA	< 1e-05	–	< 1e-05	–	7.26e-05 ± 1.2e-05
AUAAAAGUGCCAGAACUACAGAAAUGUAGUCGACGAGGAGGAGGUUUAUCGUAAUUUCGGAGGAUGCCUCCAAA	< 1e-05	–	–	–	–
AUAAAAGUGCCAGAACUACAGAAAUGUAGUUGACGAGGAGGGGGUUUAUCGAAUUUUCGGCGUAUGCCUCCAAA	< 1e-05	< 1e-05	–	< 1e-05	< 1e-05
AUAAAAGUGCCAGAAUUACAGAAAUGUAGUUGACGAGGAGGAGGUUUAUGGAAUUUUCGACGGAUUCCUCCAAA	0.000197 ± 6.5e-05	–	9.7e-05 ± 4.4e-05	–	0.000101 ± 2.7e-05
AUAAAAGCACCAGAACUACAGAAAUGUAGUUAACGAGGAGGUGGGUUAACGAAUUUUCGGCGGAUGCCUCCAAA	< 1e-05	–	–	–	< 1e-05
AUAAAAGCACCAAAACUACAGAAAUGUAGUUGACGAGGAGGAGGUUUAUCGAAUUUUUGGCGGAUUCCUCAAAA	< 1e-05	–	–	–	–
AUAAAAGCACCAGAACUACAGAAAUGUAGUUGACGAAGAGGAGGUUUAUCGAAUUUUCCGCGGAUGCCUCCAAA	< 1e-05	–	–	< 1e-05	–
